Data as given in the supplement of paper PMC8512760.
Structures can show the parent of a compound that is named as a salt. The list shows a part of the results. Repeats are few or missing, and single values can be far off.

The molecules below were run on HCC-1187 (assay: cell viability relative to vehicle (% of vehicle); basal-like triple-negative breast cancer lines; higher = less cytotoxic). Conditions: 10 µM; 72 h.
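Further: stably firefly luciferase-GFP labeled cells in 96-well plates, viability read as luciferase photon flux after d-luciferin addition, treated wells normalized to vehicle wells, single-dose high-throughput screen.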

SMILES | cell viability
CN(C)CCC=C1c2ccccc2Sc2ccc(Cl)cc21 [Chlorprothixene] | 111
Cc1ccccc1C(OCCN(C)C)c1ccccc1.O=C(O)CC(O)(CC(=O)O)C(=O)O (stereo not drawn) [Orphenadrine Citrate] | 89.7
CS(=O)(=O)c1ccc(C(=O)Nc2ccc(Cl)c(-c3ccccn3)c2)c(Cl)c1 [GDC-0449 (Vismodegib)] | 91.9
CCN(CC)CCOC(=O)c1ccc(N)cc1 [Procaine] | 85
CS(=O)(=O)O.N#CC1(c2ccc(NC(=O)c3cccnc3NCc3ccncc3)cc2)CCCC1 [Apatinib] | 113
OCC1OC(Oc2ccc(O)cc2)C(O)C(O)C1O (stereo not drawn) [Arbutin] | 81
O=C1NC(=O)[C@@H](c2c[nH]c3ccccc23)[C@H]1c1cn2c3c(cccc13)CCC2 [Tivantinib (ARQ 197)] | 45
OCC1OC(c2ccc(Cl)c(Cc3ccc(OC4CCOC4)cc3)c2)C(O)C(O)C1O (stereo not drawn) | 98.9
Cl.O=C1Cc2cc(CCN3CCN(c4nsc5ccccc45)CC3)c(Cl)cc2N1 [Ziprasidone HCl] | 142
COc1cc(NC(C)CCCN)c2ncccc2c1.O=P(O)(O)O.O=P(O)(O)O (stereo not drawn) [Primaquine Diphosphate] | 66
Nc1cc(C(Cl)=C(Cl)Cl)c(S(N)(=O)=O)cc1S(N)(=O)=O [Clorsulon] | 73.6
COC(=O)C1=C(C)NC(C)=C(C(=O)OC)C1c1ccccc1[N+](=O)[O-] [Nifedipine] | 83.8
O=NN(CCCl)C(=O)NCCCl [Carmustine] | 90.8
Cn1c(=O)c2[nH]cnc2n(C)c1=O [Theophylline] | 78
CCC1=CC2CN(C1)Cc1c([nH]c3ccccc13)C(C(=O)OC)(c1cc3c(cc1OC)N(C)C1C(O)(C(=O)OC)C(OC(C)=O)C4(CC)C=CCN5CCC31C54)C2 (stereo not drawn) [Vinorelbine] | 50
CCCNC1CCc2nc(N)sc2C1 (stereo not drawn) [Pramipexole] | 112
CCCCC(=O)OC1CCC2C3CCc4cc(O)ccc4C3CCC12C (stereo not drawn) [Estradiol valerate] | 106

SMILES | cell viability
Nc1nc(N)c2nc(-c3ccccc3)c(N)nc2n1 [Triamterene] | 114
Cc1ccsc1C(=CCCN1CCC[C@@H](C(=O)O)C1)c1sccc1C [Tiagabine hydrochloride] | 71.2
Cc1ccc(S(=O)(=O)NC(=O)NN2CC3CCCC3C2)cc1 (stereo not drawn) [Gliclazide] | 104
O=C(O)COCCN1CCN(C(c2ccccc2)c2ccc(Cl)cc2)CC1 (stereo not drawn) [Cetirizine] | 87.8
CC1(C)SC2C(NC(=O)C(NC(=O)N3CCN(S(C)(=O)=O)C3=O)c3ccccc3)C(=O)N2C1C(=O)O.[Na] (stereo not drawn) [Mezlocillin Sodium] | 83.6
Nc1nc(=O)c2ncn(CCC(CO)CO)c2[nH]1 [Penciclovir] | 99.4
O=C(CCCCCCC(=O)Nc1ccccc1)NO [Vorinostat (SAHA, MK0683)] | 59.6
CC1C=CC=CC=CC=CC=CC=CC=CC(OC2OC(C)C(O)C(N)C2O)CC2OC(O)(CC(O)CC(O)C(O)CCC(O)CC(O)CC(=O)OC(C)C(C)C1O)CC(O)C2C(=O)O (stereo not drawn) [Amphotericin B] | 93
CC(C)OC(=O)OCOP(=O)(COC(C)Cn1cnc2c(N)ncnc21)OCOC(=O)OC(C)C.O=C(O)C=CC(=O)O (stereo not drawn) [Tenofovir Disoproxil Fumarate] | 64.9
O=C(O)CCNC(=O)c1ccccc1 [Betamipron] | 109
NC(N)=NS(=O)(=O)c1ccc(N)cc1 [Sulfaguanidine] | 87.8
CC(C)(C)NC(=O)C1CCC2C3CCC4NC(=O)C=CC4(C)C3CCC12C (stereo not drawn) [Finasteride] | 59.4
COc1ccc(C=Cc2cc(OC)c(OC)c(OC)c2)cc1OP(=O)([O-])[O-].[Na+].[Na+] [Fosbretabulin (Combretastatin A4 Phosphate (CA4P)) Disodium] | 44.8
CCCN1CCCCC1C(=O)Nc1c(C)cccc1C.Cl (stereo not drawn) [Ropivacaine HCl] | 81.4
CS(=O)(=O)OCCCCOS(C)(=O)=O [Busulfan] | 94.5
CC(O)C1C(=O)N2C(C(=O)OCOC(=O)C(C)(C)C)=C(SC3CN(C4=NCCS4)C3)C(C)C12 (stereo not drawn) [Tebipenempivoxil] | 113
